The structures appear in SMILES notation. Screen size: about 150,000 compounds; about 540 (0.36%) showed an effect of 50% or more. Some of the results follow.

For the test, the system named is Plasmodium falciparum. Description: Primary screen in NF54 nanoGlo assay, in single point, at 2uM, 72h; a lower Z score goes with more inhibition. The following applies: timepoint 72 hour. The class given is functional, Erythrocyte.
Broadly, the % Inhibition is the relative decrease from the control value, in per cent. For the compound `C[C@@]1(C(=O)O)CCCN1Cc1cc(-c2ccccc2)on1`, the “% Inhibition” value was 1% and the Z score is given as -0.22.
On to `COc1cccc([C@H](CN2CCN(C(=O)c3ccc(OC)c(F)c3)CC2)OCc2cccc(Cl)c2)c1`, for which the “% Inhibition” value is reported as -8% and the Z score worked out at 1.25.
On to `O=C1c2ccccc2N[C@H](c2ccsc2)N1CCc1ccccc1`, for which the “% Inhibition” value is on record as -2% and the Z score was found to be 0.44.
The corresponding values for `CC(=O)N1c2ncnn2C(c2ccc(C)cc2)CC1c1ccc(Cl)cc1` (stereo unspecified) are -9% and 1.19.
Take `CC(C)c1cc(C(=O)N2CCN(C)[C@]3(CCC(=O)N(CC4CC4)CC3)C2)no1`: the “% Inhibition” value is on record as -9% and the Z score is 1.16.
With `Cc1ccccc1Cn1nnc2cc(C(=O)N3CCC(Cc4ccccc4)CC3)ccc21`, the “% Inhibition” value stood at 9% and the Z score is recorded as -0.9.
The matching figures for `O=C(O)[C@H]1CCCN(c2ncnc3ccsc23)C1`: 2% and -0.42.
As to `Cc1noc(C)c1C(C)NC(=O)C(C1CC1)N1CCCC1` (stereo unspecified), the “% Inhibition” value amounted to 12% and the Z score is reported as -1.08.
The matching figures for `COc1ccccc1N1CCN(C(=O)C(=O)N2CCN(c3ccccc3OC)CC2)CC1`: -5% and 0.66.
As to `NC(=O)c1ccccc1NC(=O)CNCc1cccnc1`, the “% Inhibition” value is -11% and the Z score worked out at 1.26.
As to `Nc1nc(N2CCC[C@H](CNC(=O)Cc3cccs3)C2)cc2nncn12`, the “% Inhibition” value is given as -5% and the Z score is 0.66.
The corresponding values for `Cc1ccc(Cl)cc1NC(=O)Cn1ccc(C(=O)Nc2cc(Cl)ccc2C)n1` are 34% and -3.84.
As for `C[C@@H](C(=O)NCc1cc2n(n1)CCN(C1CCCCC1)C2)n1cncn1`, the “% Inhibition” value is reported as -1% and the Z score is listed as 0.12.
With `C=CCN1C(=O)C2(CCCCC2)NC12CCN(c1ccccn1)CC2`, the “% Inhibition” value is 6% and the Z score is listed as -0.82.
The corresponding values for `CN(CCc1ccccc1)C1(C(=O)N2CCCOCC2)Cc2ccccc2C1` are 10% and -1.63.
Turning to `Cc1nnc([C@H](C)S(=O)(=O)c2ccc(C)c(C)c2)s1`, the “% Inhibition” value is recorded as 2% and the Z score is reported as -0.4.
As for `Cn1c(C2CCOC2)nnc1N1CCC2(CCOC2)C1` (stereo unspecified), the “% Inhibition” value is -1% and the Z score is 0.25.
The corresponding values for `O=C(c1cccc(-n2cnnn2)c1)N1CCN(C(=O)c2cc3n(n2)CCCC3)CC1` are -3% and 0.47.
As for `Cc1cc(C)cc(NC(=O)[C@H](C)NS(=O)(=O)c2ccc3c(c2)CCN3C(=O)N2CCCC2)c1`, the “% Inhibition” value is on record as -7% and the Z score was determined as 1.42.
For the compound `CCc1nnc(CNC(=O)Nc2cc3c(cc2OC)OCO3)s1`, the “% Inhibition” value is recorded as -7% and the Z score worked out at 1.11.
The matching figures for `CC(C)C(C(=O)N(C)CC1CCCO1)N1CCCC1` (stereo unspecified): -13% and 1.76.
For the compound `Cc1ccc(NC(=O)N2CC3(CC[C@H](CN4CCCC4)O3)C2)cc1C`, the “% Inhibition” value was found to be 7% and the Z score is recorded as -1.08.
With `CS(=O)(=O)C[C@H]1CCCN(c2nc(C3CCCCC3)ns2)C1`, the “% Inhibition” value is -7% and the Z score is given as 0.93.
As for `Cc1ccsc1C(Cc1ccccc1)NC(=O)N1CCC(C)(O)C1` (stereo unspecified), the “% Inhibition” value is -9% and the Z score is listed as 1.67.
`O=C(NCC1CC1)c1nn(-c2ccccc2)c(=O)c2ccccc12`: the “% Inhibition” value is -12% and the Z score is on record as 1.69.
Consider `CCCCc1ccc(C(=O)Nc2c(C)cnn2[C@@H](C)C2CC2)nc1`, for which the “% Inhibition” value is reported as -14% and the Z score stood at 2.
`CCc1c(C)nc(C)nc1N1CCC2(CC1)CC(=O)N(CC=C(C)C)C2`: the “% Inhibition” value was -11% and the Z score is 1.04.
`O=C(N1C[C@H]2CC[C@H]1C2)C1(Oc2ccc3ncccc3c2)CCNCC1`: the “% Inhibition” value is on record as -18% and the Z score turned out to be 2.58.
The matching figures for `CCN(CC)C(=O)NCc1nc2ccc(Br)cc2o1`: 3% and -0.35.
Regarding `NC(=O)Nc1ccc(Cl)c(Cl)c1`, the “% Inhibition” value is on record as -10% and the Z score stood at 1.1.
The matching figures for `Cc1ccncc1CC(=O)Nc1ccccc1C(=O)N1CCC(C(N)=O)CC1`: 0% and 0.05.
The corresponding values for `CO[C@@H](CNC(=O)N1CC(C)(C)OC(C)(C)C1)c1ccc(F)cc1` are -1% and 0.12.
The corresponding values for `CCS(=O)(=O)CC(C)NC(=O)N1CC(C)CCCC1C` (stereo unspecified) are 27% and -3.06.
Turning to `CCC(=O)c1cc(Cl)ccc1OS(=O)(=O)c1ccc2c(c1)CCC(=O)N2`, the “% Inhibition” value is reported as -16% and the Z score is reported as 2.29.
The corresponding values for `COC[C@@H](O)CN1CC(Oc2ccc(C#N)cc2)C1` are -28% and 3.27.
As for `COc1cc(C(=O)NCC(=O)Nc2cccc(N3CCCC3=O)c2)ccc1OC(F)F`, the “% Inhibition” value is given as -5% and the Z score came to 1.02.
The corresponding values for `CN(CCc1ccccn1)c1cc(C2CC(N)C2)nc(C2CC2)n1` (stereo unspecified) are 13% and -1.71.
The corresponding values for `O=C(O)c1ccc(CN2CC[C@H](O)[C@@H](C3CCCC3)C2)c(Br)c1` are 1% and -0.11.
The corresponding values for `Cc1ncc(N2CC(C)(C)[C@@](C)(O)C2)nc1C` are -1% and 0.15.
On to `Brc1cccc2c1CN(Cc1noc(C3CC3)n1)CC2`, for which the “% Inhibition” value is listed as -1% and the Z score was 0.14.
The matching figures for `CCn1ccc(C(=O)N(CC2CCC2)C[C@H]2CCCO2)cc1=O`: -2% and 0.37.
The corresponding values for `CCN(C(=O)Nc1cc(NC(=O)COC)ccc1C)[C@H]1CCOC(C)(C)C1` are -2% and 0.3.
Take `c1ccc2[nH]c(C3CCC(Cn4cc(-c5cncnc5)nn4)CC3)nc2c1` (stereo unspecified): the “% Inhibition” value is -8% and the Z score is 1.05.

The record behind these values is ChEMBL document CHEMBL4888484, “Replenishing the malaria drug discovery pipeline: Screening and hit evaluation of the MMV Hit Generation Library 1 (HGL1) against asexual blood stage Plasmodium falciparum ,using a nano luciferase reporter read-out” (2022).
